The results in this text go back to PubChem BioAssay AID1963576 (National Center for Advancing Translational Sciences (NCATS), 2024).

Molecules are shown by their SMILES. The whole screen tested about 46,000 compounds, of which about 60 (0.1%) were called active. Roughly 3% stayed inconclusive and do not appear here. Calls follow the shape of the dose curve; as a rule, active = well fitted inhibition curve with a large enough effect; inconclusive = small, poorly fitted or top-dose-only effect; inactive = no such curve, though single readings can be large or run the other way. The list shows a part of the results.

The test in a line: Primary qHTS assay for Inhibitors of ovarian cancer metastasis using an organotypic tumor microenvironment (TME) model. Also: nearly all actives have a fitted effect of over 65% in size.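 As to activity change, negative = inhibition: plate controls were DMSO wells for no effect and tomatine positive control wells for full effect.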 Conditions: SKOV3ip1-GFP adhesion/invasion on 3D omental model, fluorescence; series mostly up to 45.8 µM; activity change, negative = inhibition: at the top concentration. The method, boiled down:
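qHTS, 4-pt dose (0.36-46 umol/L); SKOV3ip1-GFP, 1,200 cells/well, no FBS; primary omental fibroblast/mesothelial co-culture 48 h pre-grown; 2 h RT + 16 h 37 C; PBS wash, 4% PFA; GFP count 488/509 nm.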
With `COc1ccc(-n2cc(-c3ccccc3)c3c(NCCc4ccc(OC)c(OC)c4)ncnc32)cc1`, the “activity change, negative = inhibition” value was inactive: -2.24%.

Regarding `CCOC(=O)c1ccc(NC(=O)c2c(NCc3cc(OC)c(OC)cc3OC)sc3c2CCCC3)cc1`, the “activity change, negative = inhibition” value was inactive: -9.96%.

Regarding `CCCc1cnc2c(c1SCC(=O)Nc1cccc(C)c1C)c(=O)n(C)c(=O)n2C`, the “activity change, negative = inhibition” value was inactive: 5.84%.

Regarding `CCOc1ccc(-c2nonc2NC(=O)COc2ccccc2)cc1`, the “activity change, negative = inhibition” value was inactive: 4.88%.

As for `CCc1ccc(N2CCn3c2nc2c3c(=O)n(CCCc3ccccc3)c(=O)n2C)cc1`, the “activity change, negative = inhibition” value was inactive: 16.6%.

As for `Cc1cc(C)cc(OCCn2c(CCNC(=O)C3CCCCC3)nc3ccccc32)c1`, the “activity change, negative = inhibition” value was inactive: -5.27%.

For `O=C(Cc1ccccc1F)N1CCC(c2nc3c(nnn3Cc3cccc(Cl)c3)c(=O)[nH]2)CC1`, the “activity change, negative = inhibition” value was inactive: -5.84%.

For the molecule `Cc1ccc(-n2c(-c3ccco3)nc3c(cnn3-c3ccc(C)cc3)c2=O)cc1`, the “activity change, negative = inhibition” value is inactive: 8.83%.

Turning to `O=C(CC1(O)C(=O)N(Cc2ccccc2)c2ccc(Br)cc21)c1ccccc1` (stereo not drawn), the molecule was classed as inactive.

Regarding `COc1ccc(CNC(=O)CN(c2ccc(OC)cc2)S(=O)(=O)c2c(C)[nH]c(=O)[nH]c2=O)cc1`, the “activity change, negative = inhibition” value is inactive: 2.08%.

For `COc1ccc(NC(=O)Cn2nnc(C(=O)Nc3ccc(C)c(F)c3)c2N)cc1Cl`, the molecule was called inactive.

Consider `CC1=C(C(=O)OCC2CCCCC2)C(c2cccc(F)c2F)CC(=O)N1` (stereo not drawn), for which the “activity change, negative = inhibition” value was inactive: 27.9%.

`O=C(NCCCCc1ccccc1)c1nn(-c2ccccc2)nc1CO`: the call was inactive.

`Cn1c(=O)oc2cc(S(=O)(=O)N3CCCC(C(=O)N4CCN(c5cccc(Cl)c5)CC4)C3)ccc21` (stereo not drawn): the “activity change, negative = inhibition” value was inactive: -2.46%.

As to `CCC(=O)N1CCc2cc(Br)cc(S(=O)(=O)N(CC)Cc3ccccc3)c21`, the “activity change, negative = inhibition” value is inactive: 6.46%.

For the molecule `COc1ccc(OC)c(NC(=O)N(C)CCc2c(C)nn(C)c2C)c1`, the “activity change, negative = inhibition” value is inactive: -2.77%.

As to `CCOc1ccc(NC(=O)CC2C(=O)N(c3ccc(C)cc3)C(=O)N2Cc2ccc(OC)cc2)cc1` (stereo not drawn), the “activity change, negative = inhibition” value is inactive: 4.39%.

For `CCOc1ccc(NC(=O)c2c(NC(=O)c3ccccc3Br)sc3c2CCC(C)C3)cc1` (stereo not drawn), the “activity change, negative = inhibition” value is inactive: 0.907%.

Take `Cc1cc(-c2nc3ncccc3o2)ccc1NC(=O)c1ccc(Cl)cc1`: the “activity change, negative = inhibition” value is inactive: -4.75%.

For the molecule `COC(=O)CSc1ccc2nnc(CCNS(=O)(=O)c3ccccc3)n2n1`, the “activity change, negative = inhibition” value is inactive: 28.4%.

Regarding `CCOc1ccc(S(=O)(=O)NCC(c2ccc(N(C)C)cc2)N2CCc3ccccc32)cc1` (stereo not drawn), the “activity change, negative = inhibition” value is inactive: -7.05%.

Regarding `Cc1nc(-c2cccc(F)c2)sc1CCNC(=O)C(=O)Nc1ccc2c(c1)OCO2`, the “activity change, negative = inhibition” value was inactive: 2.63%.

As to `Cc1ccc(-c2nc3ncccc3o2)cc1NC(=O)c1ccc(-c2cccc(Cl)c2C)o1`, the “activity change, negative = inhibition” value is inactive: 1.46%.

For `CCc1cccc(C)c1NC(=O)c1cn2c3c(ccc(Cl)c3c1=O)OC(C)C2` (stereo not drawn), the “activity change, negative = inhibition” value is inactive: 1.1%.

As for `Cc1cccc(N2CCN(c3ncnc4onc(C)c34)CC2C)c1` (stereo not drawn), the “activity change, negative = inhibition” value is inactive: -3.58%.

`N#Cc1nc(/C=C/c2ccc(F)cc2)oc1NC1CCCCC1`: the “activity change, negative = inhibition” value is inactive: 10.1%.

In the case of `COc1ccc(C(=O)NCC(c2ccco2)S(=O)(=O)c2cccs2)cc1` (stereo not drawn), the molecule was called inactive.

`Cc1ccccc1NC(=O)c1c(NC(=O)c2cccs2)sc2c1CCC(C)C2` (stereo not drawn): the “activity change, negative = inhibition” value was inactive: 2.19%.

For `O=C(Nc1ccc2nn(-c3ccc(Cl)cc3)nc2c1)c1cc2ccccc2o1`, the “activity change, negative = inhibition” value is inactive: -1.69%.

For the molecule `CCc1cccc(C)c1NS(=O)(=O)c1ccc(-c2cc(C)no2)s1`, the “activity change, negative = inhibition” value was inactive: -6.71%.

For `COc1ccc(-c2cccc(NS(=O)(=O)c3cc(C)ccc3OC)c2)nn1`, the “activity change, negative = inhibition” value was inactive: -11.2%.

For `Cc1cccc(NC(=O)c2c(N)sc3c2CCC(C)C3)c1` (stereo not drawn), the “activity change, negative = inhibition” value was inactive: 19.7%.

Take `COc1ccc(-c2nc3cc(NC(=O)c4cc5ccccc5o4)ccc3o2)cc1`: the “activity change, negative = inhibition” value is inactive: 2.1%.

For the molecule `CCOC(=O)c1cc(-c2ccccc2)n(CCC(=O)NCCc2ccc(OC)c(OC)c2)c1C`, the “activity change, negative = inhibition” value was inactive: -2.33%.

Regarding `Cn1c(=O)n(C)c2cc(N3CCCCC3)c(NC(=O)c3c(F)cccc3F)cc21`, the “activity change, negative = inhibition” value is inactive: -27.4%.

For the molecule `Cc1ccc(OCc2cc(=O)n3ccsc3n2)c(NC(=O)c2ccco2)c1`, the molecule was classed as inactive.

For `COc1ccc(N(C)C(=O)C2CCN(S(=O)(=O)c3cc(Br)cc4c3N(C(C)=O)CC4)CC2)cc1`, the “activity change, negative = inhibition” value was inactive: -1.76%.

On to `Cc1ccc(NCc2cccn2-c2nnc(N3CCC(C(=O)NCc4ccc(F)cc4)CC3)s2)cc1`, for which the “activity change, negative = inhibition” value is inactive: -24.9%.

Regarding `CCn1ccc2cc(S(=O)(=O)N3CCC(C(=O)NCc4ccc(F)cc4)CC3)ccc21`, the “activity change, negative = inhibition” value was inactive: -9.54%.

Turning to `O=C(Nc1ccc2nc(SCC(=O)N3CCOCC3)sc2c1)c1ccccc1Cl`, the “activity change, negative = inhibition” value is inactive: -5.37%.

With `Cc1ccc(NC(=O)CSc2nnc(COc3ccc(Cl)cc3)o2)c(C)c1`, the “activity change, negative = inhibition” value is inactive: -2.82%.

As for `Cc1cccc(OCC(=O)Nc2ccccc2OCc2cc(=O)n3cc(C)ccc3n2)c1`, the outcome was inactive.

As for `Cc1ccn2c(Nc3ccccc3C)c(-c3ccccc3)nc2c1`, the “activity change, negative = inhibition” value was inactive: -11.3%.

`COc1cccc(NC(=O)Cn2c(=O)n(Cc3ccco3)c(=O)c3cc(OC)c(OC)cc32)c1`: the molecule was classed as inactive.

For the molecule `O=C(Cn1c(=O)n2nc(-c3cccc(F)c3)nc2c2ccccc21)NCc1ccc(Cl)cc1`, the molecule was called inactive.

Consider `Cc1cc(C)cc(NC(=O)CCN2C(=O)c3ccccc3Sc3ncccc32)c1`, for which the molecule was called inactive.

For the molecule `CN(C)c1ccc(CNC(=O)c2sc3ncccc3c2-n2cccc2)cc1`, the “activity change, negative = inhibition” value was inactive: 3.72%.

With `CC1CCN(c2nc(-c3ccc(Br)cc3)nc3ccccc23)CC1`, the outcome was inactive.
